About 230 (0.21%) of roughly 110,000 compounds showed an effect of 50% or more. Some of the results follow.
What follows are compounds tested against DPAP1 (Plasmodium falciparum, UniProt Q8IIJ9) (assay: primary screen, percent inhibition; read by cleavage of a fluorogenic dipeptide substrate; higher = more effect of the substance).
Set-up: species or system P. falciparum D10 trophozoite lysates; single well
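Further: 30 min substrate incubation versus DMSO and 10 µM JCP410 controls.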

Chain of DPAP1 (Q8IIJ9 whole entry, looked up): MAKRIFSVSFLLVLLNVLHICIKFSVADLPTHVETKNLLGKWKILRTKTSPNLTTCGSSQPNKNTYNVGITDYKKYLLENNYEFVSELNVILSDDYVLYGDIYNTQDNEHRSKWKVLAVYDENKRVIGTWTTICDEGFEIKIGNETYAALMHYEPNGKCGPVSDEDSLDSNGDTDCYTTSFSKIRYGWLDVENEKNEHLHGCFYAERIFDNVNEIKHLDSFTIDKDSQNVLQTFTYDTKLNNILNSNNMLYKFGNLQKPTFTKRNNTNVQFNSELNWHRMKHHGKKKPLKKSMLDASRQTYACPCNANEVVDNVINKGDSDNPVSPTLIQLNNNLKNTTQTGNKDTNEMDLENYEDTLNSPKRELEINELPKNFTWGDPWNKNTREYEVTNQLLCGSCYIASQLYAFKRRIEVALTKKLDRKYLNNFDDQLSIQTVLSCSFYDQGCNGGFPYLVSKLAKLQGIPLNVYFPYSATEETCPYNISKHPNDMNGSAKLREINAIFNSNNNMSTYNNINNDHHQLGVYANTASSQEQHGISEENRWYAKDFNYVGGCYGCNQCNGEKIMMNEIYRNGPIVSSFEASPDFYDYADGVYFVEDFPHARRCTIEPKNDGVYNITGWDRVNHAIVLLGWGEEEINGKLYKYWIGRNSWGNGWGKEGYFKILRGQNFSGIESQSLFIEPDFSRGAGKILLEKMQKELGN

Compound | % Inhibition @ 10 uM [%]
CC(=O)c1ccc(NC(=O)CSc2nc3ccccc3s2)cc1 | -3.77
Cc1cccc(-c2noc(CNC(=O)CCC3CCCC3)n2)c1 | -4.82
Cc1ccc(-c2cn3nc(N4CCCC(C(=O)N5CCCCCC5)C4)sc3n2)cc1 (centres unmarked) | 5.11
CSc1ccc(C2C3=C(O)CCCC3=NC(C)=C2C(=O)N2CCOCC2)cc1 (centres unmarked) | -5.05
O=C1CCSC2(C(=O)Nc3ccccc32)N1c1ccc(Br)cc1 (centres unmarked) | 6.17
c1ccc2c(c1)CCN(c1ncnc3[nH]cnc13)C2 | 0.00626
Cc1nc2c(c(C)nn2C(C)(C)C)c(C)c1CCC(=O)NCCCc1ccccc1 | -4.24
CC(=O)NS(=O)(=O)c1ccc(NC(=O)CCCOc2ccc(Cl)cc2Cl)cc1 | 0.177
COC(=O)c1nnn(-c2cccc(C)c2)c1O | 6.31
O=C(NC1CCSC1=O)c1ccccc1Br (centres unmarked) | 3.85
COc1cc(CN2CCN(Cc3ccccc3C)CC2)cc(OC)c1 | 1.95
Cc1nn(CC(=O)Nc2ccc(F)c(Cl)c2)c(C)c1Br | 2.82
O=C(Nc1ccc(S(=O)(=O)Nc2ccc(Cl)c(Cl)c2)cc1)c1ccc2c(c1)OCO2 | -7.33
Cc1nc2ccc(S(=O)(=O)NCC(=O)NCc3cccnc3)cc2s1 | 0.953
O=C(CSc1nnc(CNC(=O)c2cccs2)o1)NC1CCCCC1 | -3.39
COc1ccc(S(=O)(=O)c2cnc3cc(OC)c(OC)cc3c2NCc2ccc(F)cc2)cc1 | -6.95
C=CCn1c(SCc2ccc(C)cc2)nc2c1c(=O)n(C)c(=O)n2C | -4.49
COC(=O)C1=CN(C23CC4CC(CC(C4)C2)C3)C=C(C(=O)OC)C1c1ccsc1 | -6.95
CCc1ccc(OCC(=O)NCCC2=CCCCC2)cc1 | -2.94
CC1CCCN(CCC(=O)c2ccc(Br)cc2)C1 (centres unmarked) | 1.19
CCOC(=O)c1sc2nc(-c3cccs3)cc(C(F)(F)F)c2c1N | 0.317
Fc1ccccc1N1CCN(C2CCCCCC2)CC1 | -5.44
Cc1cccc(-c2noc(CN(C(=O)c3cccs3)C3CCCCC3)n2)c1 | 2.14
CC(=O)c1ccc(S(=O)(=O)NCc2csc(C)n2)cc1 | 5.65
CCOCCOCCN1C(=O)c2ccccc2C1=O | -1.57
CCCN1CCC(N2CCN(c3ccc([N+](=O)[O-])cc3)CC2)CC1 | 1.83

Compound | % Inhibition @ 10 uM [%]
COc1ccc(CN2CCN(Cc3cc(OC)c(OC)c(OC)c3)CC2)cc1 | -3.87
CCOc1ncccc1C(=O)Nc1sc(C)c(C)c1C(=O)OC | 3.67
Cc1ccc2[nH]c3c(c2c1)CCc1c[nH]nc1-3 | -1.22
CO/C(O)=C1\C(C)=NC(=S)NC1c1cccc(OC)c1OC (centres unmarked) | 17
CNC(=O)CCS(=O)(=O)Cc1ccc(C)cc1 | 2.18
CC(=O)Nc1ccc(/C=C/c2ccccc2)cc1 | 1.21
CN(CC(=O)Nc1ccc(Oc2ccccc2)cc1)S(=O)(=O)c1ccc(F)cc1 | 0.83
CC1=CC=CN2CC(O)CN=C12 (centres unmarked) | 4.67
CC(=O)c1ccc(NC(=O)c2ccc([N+](=O)[O-])cc2)cc1 | -4.18
CNC(=O)CCc1nc(-c2ccccc2Cl)no1 | 2.02
Cc1ccc(-c2nc3ccccc3c(C(=O)O)c2C)cc1 | 4.57
COc1ccc(CCNC(=O)CSc2nc3c(c(=O)n2C)SCC3)cc1OC | 0.8
Cc1ccc2oc(=O)n(CCOc3ccccc3)c2c1 | 0.983
C#CCOc1ccc(/C=C2\SC(=O)N(CC(=O)O)C2=O)cc1OC | -2.98
COc1ccc(/C=C/C2=NC(=C\c3ccc(Cl)cc3)/C(=O)O2)cc1 | 6.4
Cc1ccc(-c2nnc(N3CCCCC3)c3ccccc23)cc1S(=O)(=O)N1CCN(C)CC1 | -6.44
CCCn1cc2c(c1-c1ccccc1Cl)c(=O)n(C)c(=O)n2C | -1.35
CC(C)Cc1ccc(-c2cc(C(=O)NCCCN3CCOCC3)c3ccccc3n2)cc1 | 2.32
CCC(CC)C(=O)N1CCc2cc(OC)c(OC)cc2C1COc1ccc(OC)cc1 (centres unmarked) | 6.04
CCOc1ccc(C(=O)C(=O)c2ccc(OCC)cc2)cc1 | 3.04
Cc1ccc(CNC(=O)CCCn2nc(C)n3ccnc3c2=O)cc1 | -7.02
COc1ccc(NC(=O)c2c(-c3ccccc3)noc2C)cc1 | 0.709
Cc1[nH]nc2c1C(c1ccc(-c3ccccc3Cl)o1)C(C#N)=C(N)O2 (centres unmarked) | 21.8
CCOC(=O)N1CCC(NC(=O)c2c(C)oc3ncnc(N4CCOCC4)c23)CC1 | 0.231
N#Cc1ccc(NC(=O)c2nn3c(C(F)(F)F)cc(-c4ccccc4)nc3c2Cl)cc1 | -1.66
O=C1CCS(=O)(=O)c2ccccc21 | -4.96

Compound | % Inhibition @ 10 uM [%]
COc1ccc(OC)c(C2NC(=O)NC(C)=C2C(=O)Nc2cccc(C)c2C)c1 (centres unmarked) | 0.0504
O=C(Nc1ccc(NC(=O)C2CC23CCC3)cc1)C1CC12CCC2 (centres unmarked) | 2.5
O=C(O)C(Cc1c[nH]c2ccccc12)NS(=O)(=O)c1ccc(Cl)cc1 (centres unmarked) | 0.983
Cc1c(Cl)cccc1-n1c(C)cc(/C=C2/C(=N)N3C=CSC3=NC2=O)c1C | -4.84
Cc1ccc(/N=C/c2c(C)nn(-c3ccccc3)c2O)cc1CN1C(=O)c2ccccc2C1=O | 0.687
Cc1nn(CC(=O)NCCc2ccc(S(N)(=O)=O)cc2)c(=O)c2cc3sccc3n12 | -1.58
O=c1ccccn1CCOc1ccc(Cl)cc1 | 1.72
COc1ccc(OCC(=O)Nc2ccc3c(c2)OCO3)cc1 | -1.57
Cn1cccc1Cc1nnc(SCC(=O)N2CCOCC2)n1-c1cccc(C(F)(F)F)c1 | 2.12
CC(C)(C)c1cc(O)c(O)c(Br)c1 | -8.15
Cc1cccc(C(=O)Nc2ccc(S(=O)(=O)N3CCCCC3C)cc2)c1 (centres unmarked) | 0.231
Cc1cc(Cl)c2c(ccc3ccccc32)n1 | -4.03
Cn1nc(-c2ccc(C(=O)NC3CCCCC3)cc2)c2ccccc2c1=O | -3.46
O=C(O)c1ccc(N2C(=O)c3cccc([N+](=O)[O-])c3C2=O)cc1O | -4.94
COc1cc(-c2noc(-c3ccncc3)n2)cc(OC)c1OC | 2.21
O=c1oc2ccccc2c2c1nnn2CCO | 0.685
O=C1N=C(N2CCCCC2)SC1=C1CCCCC1 | -4.67
Cc1ccc(-c2nc3c4cnn(C)c4ncn3n2)cc1 | -2.85
c1cc2c(cc1Nc1nc(-c3ccc(C4CCCCC4)cc3)cs1)OCO2 | -3.14
COC(=O)NC12CC3CC(CC(C3)C1=O)C2 | -1.85
O=C1CC(C(=O)NCc2ccccc2)NC(N2CCCCC2)=N1 (centres unmarked) | 2.5
COc1ccccc1N1CCN(Cc2cc(Br)c(O)c(OC)c2)CC1 | 4.67
Cc1ccc2c(c1)C(=O)c1cc3ccccc3nc1CS2 | 6.69
O=C(Nc1cc(Cl)cc(Cl)c1)c1ccccc1Cl | -1.62
CC(C)(C)NC(=O)CN(c1cccc2ccccc12)S(C)(=O)=O | -12.5
CC(C)Cn1cc(NC(=O)N(CCN(C)C)Cc2ccco2)c2ccccc2c1=O | 1.92

Compound | % Inhibition @ 10 uM [%]
COc1cccc(/C=C2/SC(Nc3ccccc3)=NC2=O)c1O | 3
Cc1ccc2c(c1)c1c3n2CCN(C(=O)CN2CCN(C(=O)c4ccco4)CC2)C3CCC1 (centres unmarked) | 2.38
CCN(Cc1ccccc1)C(=O)CN(C)S(=O)(=O)c1ccc2[nH]c3c(c2c1)CCCC3 | 1.97
CCCN1CCN(S(=O)(=O)c2ccc3nc(O)ccc3c2)CC1 | -7.67
CC1CCCCN1C(=O)c1cc(-c2ccccc2O)on1 (centres unmarked) | 1.82
COc1cc(/C=N/n2c(C)nnc2-n2nc(C)cc2C)c(Cl)cc1O | 0.561
COc1ccc(C(=O)Nc2ccc(N3CCCC3)c(Cl)c2)cc1 | -7.99
O=C(Nc1nnc(CCN2CCCCC2)s1)c1ccc(Br)cc1 | -4.04
COC(=O)C1=CN(Cc2ccc(OC)cc2)C=C(C(=O)OC)C1c1cccc(OCc2ccccc2)c1 | 3.45
CC(=O)N[C@H]1[C@H](Oc2ccc3ccccc3c2)O[C@@H]2COC(C)(C)O[C@H]2[C@@H]1O | -1.08
Cc1cc(C)c(C(=O)/C=C/c2cccc3ccccc23)c(O)n1 | -2.03
CCN(CC)CCNC(=O)CCc1nc(-c2ccc(C)cc2)no1 | 5.1
CC(C)=C1C2C=CC1C1C(=O)N(c3ccc(C#N)cc3)C(=O)C21 (centres unmarked) | 2.38
COc1ccc(-c2c(C)nn3c(N)c(-c4ccccc4)cnc23)cc1OC | -8.72
O=C(NCc1ccccc1)c1ccc(C(=O)N(C2CCCCC2)C2CCCCC2)cc1 | 5.64
COCCN1C(=O)c2oc3ccccc3c(=O)c2C1c1ccc(O)cc1 (centres unmarked) | -1.11
O=C1NC2(CCCC2)C(=O)N1CCS(=O)(=O)Oc1ccc(Cl)cc1 | -9.83
Cc1cccc(NC(=O)c2c(NC(=O)c3cccnc3)sc3c2CCCC3)c1 | -4.05
Cc1ccc(CS(=O)(=O)c2cn(CC(=O)NCc3ccco3)c3ccccc23)cc1 | -4.33
CCCN1CCN(C(=O)C2c3ccccc3C(=O)N(C)C2c2cccs2)CC1 (centres unmarked) | -1.48
O[C@]12CCCC[C@@H]1[C@@H](c1ccc(Cl)cc1)NCC2 | 1.66
Cc1ccc(Cl)c(OCCCCN2CCC(C)CC2)c1 | 2.25
CCSc1nnc(NC(=O)c2c(C)nn(-c3ccc(C)cc3)c2-n2cccc2)s1 | -6.3
